87 compounds from paper PMC4336329 (PLoS ONE, 2015) can be followed below.

Each structure is given as a SMILES string. The campaign covered roughly 310,000 compounds. About 14,000 (4.5%) showed an effect of 50% or more. Effects have a minus sign here. This is one part of the list.
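Further: peak tail current of the secondary pulse compared with the same well before compound.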

human ether-à-go-go-related gene (hERG) potassium channel, sequence (Q12809 whole entry, looked up): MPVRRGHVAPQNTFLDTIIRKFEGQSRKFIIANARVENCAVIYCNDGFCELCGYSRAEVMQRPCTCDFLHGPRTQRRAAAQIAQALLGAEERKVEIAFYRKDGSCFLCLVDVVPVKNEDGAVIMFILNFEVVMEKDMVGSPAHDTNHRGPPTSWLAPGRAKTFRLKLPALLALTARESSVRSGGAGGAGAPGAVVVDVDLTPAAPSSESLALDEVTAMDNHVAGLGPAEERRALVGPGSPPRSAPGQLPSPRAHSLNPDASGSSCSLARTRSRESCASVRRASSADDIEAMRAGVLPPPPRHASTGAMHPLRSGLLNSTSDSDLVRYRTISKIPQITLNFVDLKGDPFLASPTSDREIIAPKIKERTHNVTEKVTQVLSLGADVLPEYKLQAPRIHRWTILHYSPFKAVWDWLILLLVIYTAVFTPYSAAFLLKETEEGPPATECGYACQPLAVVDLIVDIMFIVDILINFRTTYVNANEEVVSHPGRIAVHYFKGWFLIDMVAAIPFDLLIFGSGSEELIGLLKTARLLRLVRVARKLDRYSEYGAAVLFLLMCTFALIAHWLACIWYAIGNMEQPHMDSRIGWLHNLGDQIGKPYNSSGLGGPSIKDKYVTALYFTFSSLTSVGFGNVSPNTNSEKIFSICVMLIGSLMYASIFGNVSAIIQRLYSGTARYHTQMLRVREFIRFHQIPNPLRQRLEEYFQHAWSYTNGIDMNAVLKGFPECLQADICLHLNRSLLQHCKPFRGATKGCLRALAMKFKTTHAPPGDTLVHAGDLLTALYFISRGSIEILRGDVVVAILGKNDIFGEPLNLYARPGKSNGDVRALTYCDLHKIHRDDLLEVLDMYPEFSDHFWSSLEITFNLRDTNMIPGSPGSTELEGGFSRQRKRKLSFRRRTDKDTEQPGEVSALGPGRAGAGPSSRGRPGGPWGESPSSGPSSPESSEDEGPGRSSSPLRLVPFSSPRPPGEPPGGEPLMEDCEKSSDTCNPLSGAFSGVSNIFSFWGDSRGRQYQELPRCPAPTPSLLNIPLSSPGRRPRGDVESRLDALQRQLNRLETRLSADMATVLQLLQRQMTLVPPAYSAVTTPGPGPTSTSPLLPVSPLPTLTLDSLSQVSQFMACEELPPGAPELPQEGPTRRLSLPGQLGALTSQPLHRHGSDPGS

The assay concerns the target human ether-à-go-go-related gene (hERG) potassium channel (human, UniProt Q12809). Nature of the assay: primary screen, population patch clamp on CHO cells stably expressing hERG.
Regarding `CC(C)[C@H](NC(=O)c1ccc(F)cc1)C(=O)OCC(=O)NC(=O)c1cccn1C`, the “hERG current change (%, negative = inhibition) at 10uM” value is -17.3%. With `Cc1ccc(/C=N/NC(=O)CCSc2ccccc2)cc1` the figure was 7.51%. Consider `S=C(Nc1cccc(Cl)c1)NC1CC2CCCC(C1)N2C1CCCC1` (stereo not drawn), for which the “hERG current change (%, negative = inhibition) at 10uM” value was determined as 19%. Turning to `COc1ccccc1NS(=O)(=O)c1cc2c3c(c1)CCN3C(=O)CC2`, the “hERG current change (%, negative = inhibition) at 10uM” value worked out at 5.7%. The same measure for `COc1ccc(N2CCN(C(=O)Cc3cccs3)CC2)cc1`: 1.11%; for `COc1ccccc1NC(=O)C1=C(C)N(c2ccccc2)C(=S)NC1c1cccc(C(F)(F)F)c1` (stereo not drawn): -7.7%; for `Cc1ccc(S(=O)(=O)CCC(=O)OCC(=O)Nc2ccc(N3CCOCC3)cc2)cc1`: 5.62%. The same measure for `O=C(C1CC12CCCC2)N1CCC(CO)(Cc2ccccc2Cl)CC1` (stereo not drawn): -10.4%. With `O=C(O)c1cccc(S(=O)(=O)Nc2cccc(S(=O)(=O)N3CCCCCC3)c2)c1` the figure was 22.6%; with `O=C(OCc1nc(-c2ccccc2Cl)no1)c1ccco1`, 8.73%; with `Cc1ccc(-c2nn3c(C)nnc3s2)cc1NC(=O)c1ccc(Br)o1`, -14.4%. In the case of `CCCn1c(CCC(=O)O)nc2cc(S(=O)(=O)N3CCCC3)ccc21`, the “hERG current change (%, negative = inhibition) at 10uM” value is listed as 12.1%. `CC1=CC(C)(C)Nc2ccc(OC(=O)CN3C(=O)c4cccc5cccc(c45)C3=O)cc21`: the “hERG current change (%, negative = inhibition) at 10uM” value was -0.811%. In the case of `CCCC(C(=O)c1ccccc1)n1cncn1` (stereo not drawn), the “hERG current change (%, negative = inhibition) at 10uM” value amounted to 18.8%.

In the case of `CC(C)C(C(=O)NCc1ccco1)N(CC1CCCO1)C(=O)CNS(=O)(=O)c1ccccc1` (stereo not drawn), the “hERG current change (%, negative = inhibition) at 10uM” value is 1.79%.

For `Cc1cc(C)nc(SCc2nnc(SCC(=O)Nc3ccc(Cl)c(C(F)(F)F)c3)o2)n1`, the “hERG current change (%, negative = inhibition) at 10uM” value was 6.31%. The same measure for `O=S(=O)(Nc1cccc(-n2cnnn2)c1)c1cccc(Cl)c1`: 16.2%; for `COc1ccccc1N(CC(=O)N/N=C/c1ccccc1C(=O)O)S(C)(=O)=O`: 16.3%; for `COc1ccc(NS(=O)(=O)c2ccc(O)c(C(=O)OCC(=O)NC3CCCCC3)c2)cc1`: 7.23%.

In the case of `COc1ccc(NC(=O)c2cccnc2Sc2ccccc2)c(OC)c1`, the “hERG current change (%, negative = inhibition) at 10uM” value came out at 7.52%. In the case of `COc1cc(C(=O)NC(c2ccccc2)c2ccccc2)cc(OC)c1OC`, the “hERG current change (%, negative = inhibition) at 10uM” value is -16.6%. The same measure for `Cc1cccc(NC(=O)c2cc([N+](=O)[O-])ccc2N2CCCCC2)n1`: -35.1%. As to `Cc1ccc(Nc2nc(Oc3ccc(OCc4ccccc4)nn3)nc(N3CCOCC3)n2)cc1`, the “hERG current change (%, negative = inhibition) at 10uM” value is reported as 3.53%.

Turning to `COc1ccc(-c2nc(C)sc2CC(=O)O)cc1OC`, the “hERG current change (%, negative = inhibition) at 10uM” value was 17.4%. The same measure for `N#Cc1cc([N+](=O)[O-])ccc1NCC1CCCO1` (stereo not drawn): -8.37%. The same measure for `Cc1cnc(NC(=O)c2cc3c(C)nn(Cc4ccccc4Cl)c3s2)s1`: 7.55%.

`COc1cc2c(cc1OC)C(C)N(C(=O)CCN1C(=O)C3C4C=CC(C4)C3C1=O)CC2` (stereo not drawn): the “hERG current change (%, negative = inhibition) at 10uM” value is given as 16%. As for `Cl.O=C(NCCCn1ccnc1)c1ccc(S(=O)(=O)N2CCCCCC2)cc1`, the “hERG current change (%, negative = inhibition) at 10uM” value is on record as -7.07%.

Consider `CC(NC(=O)c1cccs1)C1CCCO1` (stereo not drawn), for which the “hERG current change (%, negative = inhibition) at 10uM” value is listed as 5.46%.

Take `CC(C)OCCCNC(=S)NNC(=O)C(c1ccccc1)c1ccccc1`: the “hERG current change (%, negative = inhibition) at 10uM” value came out at 13.3%. With `C/C=C(/C)C(=O)Nc1cccc(C2=NOC3(C2)C[C@@H](C(N)=O)N(C(=O)CCCCC)C3)c1` (stereo partly drawn) the figure was -40.1%. For the compound `CN1CCN(/N=C/c2ccc(N(C)c3ccccc3)cc2)CC1`, the “hERG current change (%, negative = inhibition) at 10uM” value is on record as -10.7%. With `O=C(CNC(=O)c1ccccc1)NCC(=O)OCC(=O)c1ccc(F)cc1` the figure was -1.77%; with `CN(C)c1cccc(/C=C(\C#N)c2ccccc2)c1`, 18.5%. On to `CCC(Sc1nnc(-c2ccc(C)c(Cl)c2)n1CC)C(=O)Nc1nccs1` (stereo not drawn), for which the “hERG current change (%, negative = inhibition) at 10uM” value is recorded as -20.6%. With `CCOC(=O)C(NC(=O)c1ccccc1)=C(C)C` the figure was 7.07%; with `S=C(Nc1ccccc1Cl)NC1CC2CCCC(C1)N2C1CC1` (stereo not drawn), -23.8%; with `COc1cccc(OC)c1C(=O)NCCN1CCN(C(=O)c2c(OC)cccc2OC)CC1`, 6.88%. The same measure for `CC1CCN(C(=S)NC(=O)c2ccccc2)CC1`: -33.4%; for `CCOc1ccc(OCC)c(NC(=O)CCNS(=O)(=O)c2cc(Br)cnc2N)c1`: -8.95%; for `O=C(Nc1ccc(S(=O)(=O)N2CCCC2)cc1)C1CC(=O)N(c2ccccc2)C1` (stereo not drawn): 33.9%. The same measure for `O=C(NC(=S)N1CCCC1)c1ccc(Cl)cc1`: 15.8%; for `COc1ccc(S(=O)(=O)N2CCC3(CC2)OCCN3S(=O)(=O)c2cccs2)cc1OC`: -23.2%; for `O=C(CSc1nc2sc3c(c2c(=O)n1-c1ccccc1)CCCC3)N/N=C/c1ccc(C(=O)O)cc1`: 5.26%. With `COc1cc(/C=C/C(=O)OCC(=O)Nc2c(C)n(C)n(-c3ccccc3)c2=O)cc(OC)c1OC`, the “hERG current change (%, negative = inhibition) at 10uM” value worked out at 7.25%. Regarding `CCCCNCCCOc1ccc(C)cc1Br.O=C(O)C(=O)O`, the “hERG current change (%, negative = inhibition) at 10uM” value was -35%. With `O=C(Oc1cccc([N+](=O)[O-])c1)N1CCCCC1` the figure was -0.619%; with `O=C(NCCc1ccccc1)C(=O)NCC1CCCO1` (stereo not drawn), -0.491%. The same measure for `O=C(NCCN1CCOCC1)c1cc2cc([N+](=O)[O-])ccc2s1`: -63.3%. The same measure for `CN1C(=S)SC(/[N+]([O-])=C/c2cccnc2)C1(C)C` (stereo not drawn): -0.033%; for `CC(NC(=O)CCl)c1ccc(Cl)c(Cl)c1` (stereo not drawn): -2.59%.

On to `COc1ccc2nc(SCC(=O)Nc3ccc(S(=O)(=O)N4CCCC4)cc3)c(C#N)cc2c1`, for which the “hERG current change (%, negative = inhibition) at 10uM” value is reported as -10.3%. For the compound `O=C(COC(=O)/C=C/c1ccc([N+](=O)[O-])cc1)NCc1ccccc1`, the “hERG current change (%, negative = inhibition) at 10uM” value is given as 2.07%. With `C[C@@H]1CC[C@@]2(O[C@@H](CCO)C[C@@H](O)[C@@H]2O)O1` the figure was 18.6%. The same measure for `COc1cccc(/C=C/C(=O)N(C)CC(=O)Nc2ccc(Cl)c(C(F)(F)F)c2)c1`: 17.1%; for `O=C(NN/C(=N/S(=O)(=O)c1ccc(Cl)cc1)c1ccccc1)c1ccc(O)cc1`: 21.6%; for `Clc1ccccc1-c1ccc(/C=N/n2cnnc2)o1`: -24.1%.

As for `COc1cc(CNC(=O)C2CCCN2S(=O)(=O)c2ccccc2)cc(OC)c1OC` (stereo not drawn), the “hERG current change (%, negative = inhibition) at 10uM” value came out at 11%. With `CCCCC(C(=O)O)C(C)CC(=O)Nc1ccn(-c2ccccc2)n1` (stereo not drawn) the figure was 12.1%; with `CCCN(CCC)c1ncnc2c1cnn2-c1ccc(OC)cc1`, -6.18%; with `CC1CC(C)CN(CC(=O)NC(c2ccccc2)c2ccccc2)C1.O=C(O)C(=O)O` (stereo not drawn), -68.4%.

With `COc1cccc(NC(=O)CSc2nnc(NC(=O)c3ccco3)s2)c1`, the “hERG current change (%, negative = inhibition) at 10uM” value is 2.95%. Take `Clc1ccccc1-c1nnn(Cc2ccc(-c3nn[nH]n3)cc2)n1`: the “hERG current change (%, negative = inhibition) at 10uM” value worked out at 9.34%. With `Br.COc1cc(NS(=O)(=O)c2ccc(Nc3nc(-c4cccc([N+](=O)[O-])c4)cs3)cc2)nc(OC)n1` the figure was -21.1%; with `NS(=O)(=O)c1ccc(NC(=O)CCC(=O)c2cccs2)cc1`, 8.85%; with `O=C1CCC(C(=O)N2CCSCC2)CN1CCc1ccccc1` (stereo not drawn), 19.2%. With `O=C(COc1ccc(Cl)cc1Cl)OCC(=O)c1ccc[nH]1` the figure was -22.1%. With `CN1CCN(CC(=O)Nc2ccc([N+](=O)[O-])cc2Br)CC1` the figure was -70.9%. Regarding `O=S1(=O)CCOC[C@H](Cc2ccccc2)N1Cc1ccc(Cl)cc1`, the “hERG current change (%, negative = inhibition) at 10uM” value is on record as -11.3%. The same measure for `CCc1cccc(CC)c1NC(=O)CO/N=C(\N)CC(=O)NC1CCCCC1`: 15%.

For `COc1ccc(NC(=O)Nc2nnc(CC(=O)Nc3ccccc3)s2)cc1`, the “hERG current change (%, negative = inhibition) at 10uM” value was found to be 4.42%. Consider `O=C1CC(C(=O)Nc2ccc(C(=O)O)cc2)C(c2ccccc2)O1` (stereo not drawn), for which the “hERG current change (%, negative = inhibition) at 10uM” value is given as 28.3%.

For the compound `O=C(NCCN1CCCCC1)Nc1ccc(F)cc1F`, the “hERG current change (%, negative = inhibition) at 10uM” value is given as -3.39%. With `Cc1ccc(C)c(C(C)NC(=O)c2ccc(Br)o2)c1` (stereo not drawn) the figure was 14%. As for `C=CCNC(=O)COc1cc(C)ccc1C`, the “hERG current change (%, negative = inhibition) at 10uM” value turned out to be 19%. The same measure for `COc1cccc(-c2noc(CCC(=O)NCC3CCCO3)n2)c1` (stereo not drawn): 17.4%; for `O=C(NCCN1CCOCC1)c1ccccc1-c1ccccc1`: 0.439%.

For `Cc1ccc(NS(=O)(=O)c2ccc(C(=O)NCC(c3ccco3)N(C)C)cc2)cc1` (stereo not drawn), the “hERG current change (%, negative = inhibition) at 10uM” value turned out to be 3.12%. As to `O=C(Nc1ccn(Cc2c(F)c(F)cc(F)c2F)n1)c1ccc(COc2ccc(Cl)cc2Cl)o1`, the “hERG current change (%, negative = inhibition) at 10uM” value is on record as 7.3%. The same measure for `Cc1ccc(C(=O)Nc2nnc(-c3cccs3)s2)cc1C`: 7.45%; for `Cc1ccnc(NC(=O)c2cccc(S(=O)(=O)N3CCOCC3)c2)c1`: -18.9%. Regarding `Cc1ccc(S(=O)(=O)NCC(C)NC(=O)CN2CCOCC2)cc1` (stereo not drawn), the “hERG current change (%, negative = inhibition) at 10uM” value is recorded as 26%.

As for `CCC(=NCCc1ccc(OC)c(OC)c1)c1ccccc1O`, the “hERG current change (%, negative = inhibition) at 10uM” value amounted to 14.8%. With `S=c1[nH]nc(-c2ccc3ccccc3n2)n1-c1ccccc1` the figure was 24.9%; with `C[C@@H](CSc1ccc(Br)cc1)CN1CC[C@H](C(C)(C)C)CCC1=O`, 7.36%.

As to `COc1cccc(CN(C)C(=O)C(CCSC)NS(=O)(=O)c2ccc3c(c2)OCCO3)c1OC` (stereo not drawn), the “hERG current change (%, negative = inhibition) at 10uM” value is -16.7%. With `CC(=O)N1CCC(c2c[nH]c3ccccc23)CC1` the figure was 5.87%.
